In PubChem BioAssay AID1240 (Sanford-Burnham Center for Chemical Genomics, 2008):
Screen size: about 50,000 compounds; about 800 (1.6%) showed an effect of 50% or more. The list shows a part of the results.

molecular target: Bcl-2-like protein 10 (Homo sapiens) (UniProt Q9HD36); assay: TR3 peptide-Bcl-B binding displacers, biochemical primary FP assay, phenotype converters (AID 1240); settings: GST-Bcl-B / FITC-TR3 peptide fluorescence polarization; stronger effect = higher value; compound at 3.75 mg/L;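 also: 0% = Bcl-B with tracer peptide and DMSO and 100% = tracer peptide lacking Bcl-B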
Chain of UniProt Q9HD36 (Q9HD36 whole entry, looked up): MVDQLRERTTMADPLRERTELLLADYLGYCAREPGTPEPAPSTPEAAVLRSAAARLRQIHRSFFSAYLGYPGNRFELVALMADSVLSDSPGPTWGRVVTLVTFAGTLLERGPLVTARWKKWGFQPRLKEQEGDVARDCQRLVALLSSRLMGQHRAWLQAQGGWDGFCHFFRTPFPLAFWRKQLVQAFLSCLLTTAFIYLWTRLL

| SMILES | displacement [%] |
| --- | --- |
| O=C(c1ccccc1)c1cc(Cl)ccc1NC(=O)c1nc[nH]c1C(=O)N1CCCCC1 | -12.3 |
| O=C1NC(=O)C(=Cc2ccc3c(c2)OCO3)C(=O)N1 | 0.3 |
| CCOc1ccc(-n2c(-c3ccccn3)nc3ccccc3c2=O)cc1 | -10.2 |
| O=[N+]([O-])c1ccc(N2CCNCC2)c2cccnc12 | 18.7 |
| C=CCN1C(=O)NC(=O)/C(=C/c2ccc(N(C)C)c(Br)c2)C1=O | 7.5 |
| CCC1(c2ccccc2)C(=O)NC(=O)N(C(=O)c2ccc(Cl)cc2)C1=O (configuration not stated) | 3.8 |
| COc1ccc(CCNCc2ccccn2)cc1 | -2.8 |
| Cc1ccccc1C(=O)Nc1cc(Cl)c([N+](=O)[O-])cc1Cl | 29.5 |
| COc1ccccc1CCNCc1cccc(Cl)c1 | -8.8 |
| Cc1ccc(C(c2c(O)c3ccccc3oc2=O)c2c(O)c3ccccc3oc2=O)cc1 | 11.4 |
| Cc1cc(-c2ccccc2)[n+]2cc(Br)ccc2n1 | 3.9 |
| CCC(CC)N1CCN(Cc2cccc(Cl)c2)CC1 | -6.2 |
| O=C1NC(=O)N(c2ccc3c(c2)OCO3)C(=O)/C1=C/c1ccc(OCc2cccc(C(=O)O)c2)cc1 | 12.1 |
| CCCCSc1nc2ccccc2c(=O)n1-c1ccccc1OC | -4.3 |
| O=[N+]([O-])c1cc2c(cc1CNCCc1c[nH]c3ccccc13)OCO2 | 13.9 |
| OC12CCCCC1C(c1ccc(Br)cc1)NCC2 (configuration not stated) | -7.4 |
| CCOc1ccc(N2C(=O)CC(=O)NC2=S)cc1 | 4.1 |
| O=C1NC(=O)N(c2ccccc2)C(=O)/C1=C\c1ccc(-c2ccc(C(=O)O)cc2)o1 | 12.3 |
| CCCC1(c2ccccc2)C(=O)NC(=O)NC1=O | 1.1 |
| O=[N+]([O-])c1ccc(N2CCCC2)c2ncccc12 | 21.6 |
| O=c1c2ccccc2[nH]c(=S)n1-c1ccccc1 | -9.7 |
| Cc1cccc(-n2c(/C=C3\C(=O)Nc4ccccc43)nc3ccccc3c2=O)c1 | 2.4 |
| O=c1c2ccccc2nc(/C=C/c2ccc(O)c(O)c2)n1-c1ccccc1 | 1.9 |

| SMILES | displacement [%] |
| --- | --- |
| O=[N+]([O-])c1cccc(CNCCc2cccc(Cl)c2)c1 | 11.2 |
| O=[N+]([O-])c1cc(F)c(N2CCCCC2)cc1Br | -3 |
| CCCNC(=O)C1CN1Cc1ccc(OC)cc1 (configuration not stated) | 0.5 |
| O=C(COc1ccc(Cl)cc1)N1CCN(Cc2cccc(F)c2)CC1 | 6.9 |
| Cc1nc2ccccc2c(=O)n1-c1cccnc1 | 9 |
| O=C1CC(=O)N(c2ccc(Br)cc2)C(=S)N1 | 4.1 |
| O=C(/C=C/c1ccc(N2N=N2)cc1)/C=C/c1ccc(N2N=N2)cc1 | -0.9 |
| O=C1NC(=O)N(c2ccccc2F)C(=O)/C1=C/c1ccc(-c2cc(C(=O)O)ccc2Cl)o1 | 11 |
| N/C(=N\[N+](=O)[O-])N/N=C\c1ccc(-c2ccc(Cl)c([N+](=O)[O-])c2)o1 | 7.6 |
| Cc1ccc(Sc2ccc(C=C3C(=O)N(C)C(=O)N(C)C3=O)o2)cc1 | 13.1 |
| COc1ccc(O)c(CN2CCN(Cc3ccccc3Cl)CC2)c1 | -3.6 |
| c1cc2c(cc1CCNC1CCCCCC1)OCO2 | -12.7 |
| COc1ccc(-n2c(/C=C/c3c[nH]c4ccccc34)nc3ccccc3c2=O)cc1 | -10.4 |
| O=c1c2cc(I)ccc2nc(/C=C/c2c[nH]c3ccccc23)n1-c1ccccc1 | 2.4 |
| Cc1cc(C)cc(N2C(=O)NC(=O)/C(=C\C=C\c3ccco3)C2=O)c1 | -36.6 |
| O=C1NC(=S)NC(=O)C1=Cc1ccc(OCc2cccc(C(=O)O)c2)cc1 | 13.6 |
| Cc1cc(C)c(C(=O)C(C)N)c(C)c1 (configuration not stated) | 9.3 |
| O=C1C2(c3ccccc3)CN3CN(C2)CC1(c1ccccc1)C3 | 4 |
| O=C(COc1ccc2ccccc2c1)N1CCN(Cc2ccc(F)cc2)CC1 | -4.3 |
| O=c1c2ccccc2nc(/C=C/c2cccc([N+](=O)[O-])c2)n1-c1ccccc1O | 4.4 |
| CCC1(C)CC(CCNCc2ccccc2)(c2ccc(C)cc2)CCO1 (configuration not stated) | -1.5 |
| CCCCC1(c2ccccc2)C(=O)NC(=O)NC1=O | 11.8 |
| CN1C(=O)NC(=O)/C(=C/c2ccc(-c3ccc([N+](=O)[O-])cc3)o2)C1=O | 3.6 |

| SMILES | displacement [%] |
| --- | --- |
| CCOP(=O)(OCC)C(=C(Cl)Cl)C(C(=O)OC)C(=O)OC | -9.7 |
| CCCc1ccc(OCCNc2ccc([N+](=O)[O-])c3cccnc23)cc1 | 10 |
| CC(C)c1ccc(N2C(=O)CC(=O)NC2=O)cc1 | -5.9 |
| Cc1cc(/C=C2\C(=O)NC(=O)N(c3ccc(Cl)cc3)C2=O)c(C)n1C | 1.7 |
| O=C1NC(=O)C(=Cc2ccccc2OCCOc2ccc([N+](=O)[O-])cc2)C(=O)N1 | 11.4 |
| CCc1ccccc1N1C(=O)NC(=O)/C(=C\c2cc(C)n(C)c2C)C1=O | 87.7 |
| O=C1NC(=O)C(=Cc2ccc(-c3ccc(C(=O)O)cc3)o2)C(=O)N1 | 12.4 |
| Cc1ccc(NC(=O)C2C(C)(C)C2(C)C)cc1C | 6.9 |
| COc1ccc(C=C2C(=O)NC(=O)NC2=O)c(OC)c1 | 11.9 |
| Cn1c(O)c(/C=C2\C=CC=N2)c(=O)[nH]c1=O | 16.1 |
| CN1C(=O)NC(=O)/C(=C/c2ccc(-c3ccc(C(=O)O)cc3)o2)C1=O | -83.9 |
| CN1CCN(c2ccc([N+](=O)[O-])c(N3CCCCC3)c2)CC1 | -0.6 |
| O=c1c2ccccc2nc(-c2ccccc2F)n1-c1ccc(Cl)cc1 | -4.2 |
| O=C1C2CCN(CC2)C1Cc1ccccc1O (configuration not stated) | 16.8 |
| Cc1cc(C=C2C(=O)NC(=S)NC2=O)c(C)n1-c1ccc(Cl)cc1 | 36.9 |
| O=C(Cc1ccccc1)N1CCN(C2CCN(Cc3ccccc3)CC2)CC1 | -4.1 |
| COc1ccc(CCNCc2ccncc2)cc1 | 7.1 |
| O=C(CSCc1nc2ccccc2c(=O)n1-c1ccccc1Cl)Nc1ccccc1 | -9.9 |
| c1ccc(C2CC3CC4(CCCC4)N2O3)cc1 (configuration not stated) | 9.1 |
| COc1ccc(CN2CCN(C(C)C)CC2)c(OC)c1 | -12.5 |
| COc1ccccc1-n1c(/C=C/c2ccccc2O)nc2ccccc2c1=O | -6 |
| O=C(N1CCN(C(c2ccccc2)c2ccccc2)CC1)C(O)(c1ccccc1)c1ccccc1 | -5.2 |
| Cc1ccc(-c2nc3ccccc3c(=O)n2-c2cccc(C)n2)cc1 | 10 |

| SMILES | displacement [%] |
| --- | --- |
| CN1C(=O)NC(=O)/C(=C/c2ccc(I)o2)C1=O | 9.2 |
| Cc1ccc(S(=O)(=O)Oc2ccccc2C=C2C(=O)NC(=O)NC2=O)cc1 | -8.7 |
| O=C1CC(=O)N(c2ccc(F)cc2)C(=S)N1 | 3 |
| Cc1cc(OCC(=O)OCc2ccccc2)c2c3c(c(=O)oc2c1)CCCC3 | 3.5 |
| COc1ccccc1CNCCc1ccc(Cl)cc1 | 15.5 |
| O=C(COc1ccc2ccccc2c1)N1CCN(C2CCCC2)CC1 | 12.7 |
| CCCOC1NC(=N[N+](=O)[O-])NC1OCCC (configuration not stated) | -0.6 |
| CCCC(=O)c1ccc(N2CCN(C)CC2)c(F)c1 | -7.2 |
| O=[N+]([O-])c1ccc(N2CCCCCC2)c(F)c1Br | 2.4 |
| O=C1CC(=O)N(c2ccc(Cl)cc2)C(=O)N1 | 5.6 |
| O=C1c2ccccc2NC(c2ccccc2F)N1c1ccccc1 (configuration not stated) | -0.3 |
| CCOc1ccc(N2C(=O)/C(=C/c3ccc(Br)o3)C(=O)NC2=S)cc1 | -89.8 |
| CC1=NN(c2ccccc2)C(=O)/C1=C/c1c(O)[nH]c(=O)[nH]c1=O | 9.6 |
| O=[N+]([O-])c1ccc(NCCOc2cccc3ccccc23)c2ncccc12 | 12.1 |
| Cn1cc(/C=C2\C(=O)NC(=O)N(Cc3ccccc3)C2=O)c2ccccc21 | 99.3 |
| COc1cc([N+](=O)[O-])cc(/C=C2/C(=O)NC(=O)N(C)C2=O)c1O | 2.3 |
| COc1ccccc1CN1CCN(Cc2cc(Br)ccc2O)CC1 | 5.5 |
| C=C(C)Cn1c(=O)n(CC2CS2)c2ccccc21 (configuration not stated) | 2.8 |
| COc1cccc(CN2CCN(C(=O)COc3ccccc3)CC2)c1OC | -24.7 |
| CSc1nc2ccccc2c(=O)n1-c1cccc(C)c1 | -6.2 |
| O=[N+]([O-])c1cc(F)c(N2CCOCC2)cc1Br | -0.6 |
| CCc1nc2ccccc2c(=O)n1-c1cccc(O)c1 | 11.7 |
| Cc1cc(OCC(=O)c2ccc(F)cc2)c2c3c(c(=O)oc2c1)CCCC3 | -6 |

| SMILES | displacement [%] |
| --- | --- |
| CCCCn1c(=O)c(C(=O)Nc2ccccc2Br)c(O)c2ccccc21 | 1.5 |
| COc1ccc(CN2CCN(C(C)C)CC2)c(OC)c1OC | -21.1 |
| Cc1ccc(S(=O)(=O)ON2CC2(C(F)(F)F)C(F)(F)F)cc1 (configuration not stated) | 8.7 |
| O=C(COc1ccc(Cl)cc1)N1CCN(Cc2ccc([N+](=O)[O-])cc2)CC1 | 5.3 |
| S=C(Nc1cccc2ccccc12)NC1CN2CCC1CC2 (configuration not stated) | -1.5 |
| COc1cc(C=C2C(=O)NC(=O)NC2=O)ccc1OCc1ccc(C(=O)O)cc1 | 0.6 |
| Cc1ccccc1N1C(=O)CC(=O)N(c2ccccc2C)C1=S | 10 |
| O=c1c2ccccc2nc(-c2ccco2)n1-c1ccncc1 | -8.5 |
| COC(=O)C1C2C(=O)N(c3ccc([N+](=O)[O-])cc3)C(=O)C12c1ccc(Cl)cc1 (configuration not stated) | -4.6 |
| Cc1ccc(S(=O)(=O)Oc2ccccc2C=C2C(=O)N(C)C(=O)N(C)C2=O)cc1 | 6.1 |
| CCOC(=O)C(C)(C)ON1CC1(C(F)(F)F)C(F)(F)F (configuration not stated) | -1.7 |
| O=Cc1cn(Cc2ccc(Br)cc2)c2ccccc12 | 0.2 |
| NCC(O)CNc1ccc([N+](=O)[O-])c2cccnc12 (configuration not stated) | -7.7 |
| CCC(C)N1CCN(C(=O)COc2ccc(Cl)cc2)CC1 (configuration not stated) | 9.2 |
| Cc1c(Br)c([N+](=O)[O-])nn1CC(=O)Nc1ccc(Cl)cc1C(=O)c1ccccc1 | -10.5 |
| COc1ccc(C2c3c(c4ccccc4oc3=O)Oc3c2c(=O)oc2ccccc32)cc1COc1ccccn1 | -2.4 |
| COc1ccccc1CCNCc1ccccc1Cl | 3.9 |
| COC(C(=O)Nc1ccc(Br)cc1C(=O)c1ccccc1)c1ccccc1 (configuration not stated) | -17.4 |
| COc1cc(C2c3c(c4ccccc4oc3=O)Oc3c2c(=O)oc2ccccc32)cc(OC)c1OC | 11.8 |
| O=C(Nc1ccc(Cl)cc1C(=O)c1ccccc1)c1cc2ccccc2o1 | 1.6 |
